Blank lines part the entries; values can stand above or below the binder they belong to.
Tests used:
DLL ECD His tag = biological target: T1, DLL ECD His tag (UniProt Q9NR61 part only, limits assumed); assay: Biacore SPR
T1 construct: extracellular domain; Bought reagent; also called DLL4; DLL-4; not shown: His tag

VEGF 1-165 aa = biological target: T2, VEGF 1-165 aa (UniProt P15692 27-191); assay: direct bind ELISA (C-term VD)
T2 construct: Bought antigen coated on the ELISA plate
T2 sequence (looked up): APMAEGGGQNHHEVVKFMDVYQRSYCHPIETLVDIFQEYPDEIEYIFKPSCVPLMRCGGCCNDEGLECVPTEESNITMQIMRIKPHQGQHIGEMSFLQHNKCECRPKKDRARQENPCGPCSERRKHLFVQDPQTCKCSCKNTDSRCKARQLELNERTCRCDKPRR

HGF-His tag = biological target: T3, HGF-His tag (UniProt P14210 32-728); assay: direct bind ELISA (N-term VD);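 note: ELISA screen of antibodies for binding to plate-immobilized target antigen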
T3 construct: Bought antigen coated on the ELISA plate; not shown: His tag

PlGF = biological target: T4, PlGF (UniProt P49763-2 21-149, limits assumed); assay: direct bind ELISA, N-terminal VD
T4 construct: bought antigen coated on the ELISA plate; also called Placental GF
T4 sequence (looked up): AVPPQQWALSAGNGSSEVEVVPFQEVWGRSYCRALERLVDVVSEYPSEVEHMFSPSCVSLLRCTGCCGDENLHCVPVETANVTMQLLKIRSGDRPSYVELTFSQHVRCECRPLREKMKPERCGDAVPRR

VEGF = biological target: T5, VEGF (UniProt P15692 27-191, limits assumed); assay: direct bind ELISA, C-terminal VD
T5 construct: bought antigen coated on the ELISA plate
T5 sequence (looked up): T2 sequence (looked up)

Sequence of HGF-His tag (P14210 32-728 limits assumed): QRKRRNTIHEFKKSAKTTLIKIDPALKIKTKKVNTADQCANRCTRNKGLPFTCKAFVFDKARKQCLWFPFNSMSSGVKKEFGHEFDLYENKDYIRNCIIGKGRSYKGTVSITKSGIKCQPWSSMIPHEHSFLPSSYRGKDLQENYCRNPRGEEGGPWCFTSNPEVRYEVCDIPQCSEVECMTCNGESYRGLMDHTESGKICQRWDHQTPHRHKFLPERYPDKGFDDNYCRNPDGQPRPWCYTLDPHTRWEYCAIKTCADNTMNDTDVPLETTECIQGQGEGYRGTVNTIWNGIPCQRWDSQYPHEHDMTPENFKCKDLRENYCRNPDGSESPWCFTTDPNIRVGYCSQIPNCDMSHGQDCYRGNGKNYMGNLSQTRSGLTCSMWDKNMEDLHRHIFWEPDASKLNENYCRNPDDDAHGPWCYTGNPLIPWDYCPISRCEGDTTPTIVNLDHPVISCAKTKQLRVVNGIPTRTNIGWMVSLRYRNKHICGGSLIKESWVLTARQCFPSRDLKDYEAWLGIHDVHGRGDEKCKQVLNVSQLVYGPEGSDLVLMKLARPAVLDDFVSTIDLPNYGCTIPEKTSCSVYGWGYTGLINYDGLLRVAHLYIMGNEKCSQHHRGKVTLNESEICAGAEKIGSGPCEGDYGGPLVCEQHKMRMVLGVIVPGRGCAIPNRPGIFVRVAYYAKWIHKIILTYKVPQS

- Kd (DLL ECD His tag): 0.347 nM
- koff (DLL ECD His tag): 0.000205 s⁻¹
- kon (DLL ECD His tag): 590000 M⁻¹ s⁻¹
B1: DVD044 (bispecific antibody, human IgG1, kappa)
heavy: EVQLVESGGGLVQPGGSLRLSCAASGFTFTDNWISWVRQAPGKGLEWVGYISPNSGFTYYADSVKGRFTISADTSKNTAYLQMNSLRAEDTAVYYCARDNFGGYFDYWGQGTLVTVSSASTKGPEVQLVESGGGLVQPGGSLRLSCAASGYTFTNYGMNWVRQAPGKGLEWVGWINTYTGEPTYAADFKRRFTFSLDTSKSTAYLQMNSLRAEDTAVYYCAKYPHYYGSSHWYFDVWGQGTLVTVSS[omitted - human IgG1 constant region]
light: DIQMTQSPSSLSASVGDRVTITCRASQDVSTAVAWYQQKPGKAPKLLIYSASFLYSGVPSRFSGSGSGTDFTLTISSLQPEDFATTYYCQQSYTGTVTFGQGTKVEIKRTVAAPDIQMTQSPSSLSASVGDRVTITCSASQDISNYLNWYQQKPGKAPKVLIYFTSSLHSGVPSRFSGSGSGTDFTLTISSLQPEDFATYYCQQYSTVPWTFGQGTKVEIKRTVAAPSVFIFPPSDEQLKSGTASVVCLLNNFYPREAKVQWKVDNALQSGNSQESVTEQDSKDSTYSLSSTLTLSKADYEKHKVYACEVTHQGLSSPVTKSFNRGEC
notes: N-terminal VD DLL4, C-terminal VD VEGF; also called DVD044H; DVD044L

- EC50 (VEGF 1-165 aa): 161 nM
- EC50 (HGF-His tag): 0.4 nM
B2: DVD659 (bispecific antibody, human IgG1, kappa)
heavy: EVQLVQSGAEVKKPGESLKISCKGSGYSFTTYWMHWVRQMPGKGLEWMGEINPTNGHTNYNPSFQGQVTISADKSISTAYLQWSSLKASDTAMYYCARNYVGSIFDYWGQGTLVTVSSASTKGPEVQLVESGGGLVQPGGSLRLSCAASGYTFTNYGMNWVRQAPGKGLEWVGWINTYTGEPTYAADFKRRFTFSLDTSKSTAYLQMNSLRAEDTAVYYCAKYPHYYGSSHWYFDVWGQGTLVTVSS[omitted - human IgG1 constant region]
light: DIQMTQSPSSLSASVGDRVTITCKASENVVSYVSWYQQKPGKAPKLLIYGASNRNTGVPSRFSGSGSGTDFTLTISSLQPEDFATYYCGQSYNYPYTFGQGTKLEIKRTVAAPDIQMTQSPSSLSASVGDRVTITCSASQDISNYLNWYQQKPGKAPKVLIYFTSSLHSGVPSRFSGSGSGTDFTLTISSLQPEDFATYYCQQYSTVPWTFGQGTKVEIKRTVAAPSVFIFPPSDEQLKSGTASVVCLLNNFYPREAKVQWKVDNALQSGNSQESVTEQDSKDSTYSLSSTLTLSKADYEKHKVYACEVTHQGLSSPVTKSFNRGEC
notes: DVD-Ig; HC linker short, LC linker short; vectors V1/V2

- EC50 (VEGF 1-165 aa): 1.02 nM
- EC50 (HGF-His tag): 0.33 nM
B3: DVD677 (bispecific antibody, human IgG1, kappa)
heavy: B2 heavy
light: DIQMTQSPSSLSASVGDRVTITCKASENVVSYVSWYQQKPGKAPKLLIYGASNRNTGVPSRFSGSGSGTDFTLTISSLQPEDFATYYCGQSYNYPYTFGQGTKLEIKRTVAAPSVFIFPPDIQMTQSPSSLSASVGDRVTITCSASQDISNYLNWYQQKPGKAPKVLIYFTSSLHSGVPSRFSGSGSGTDFTLTISSLQPEDFATYYCQQYSTVPWTFGQGTKVEIKRTVAAPSVFIFPPSDEQLKSGTASVVCLLNNFYPREAKVQWKVDNALQSGNSQESVTEQDSKDSTYSLSSTLTLSKADYEKHKVYACEVTHQGLSSPVTKSFNRGEC
notes: DVD-Ig; HC linker short, LC linker long; vectors V1/V2

- EC50 (VEGF 1-165 aa): 28.8 nM
- EC50 (HGF-His tag): 0.35 nM
B4: DVD671 (bispecific antibody, human IgG1, kappa)
heavy: EVQLVQSGAEVKKPGESLKISCKGSGYSFTTYWMHWVRQMPGKGLEWMGEINPTNGHTNYNPSFQGQVTISADKSISTAYLQWSSLKASDTAMYYCARNYVGSIFDYWGQGTLVTVSSASTKGPSVFPLAPEVQLVESGGGLVQPGGSLRLSCAASGYTFTNYGMNWVRQAPGKGLEWVGWINTYTGEPTYAADFKRRFTFSLDTSKSTAYLQMNSLRAEDTAVYYCAKYPHYYGSSHWYFDVWGQGTLVTVSS[omitted - human IgG1 constant region]
light: B2 light
notes: DVD-Ig; HC linker long, LC linker short; vectors V1/V2

- EC50 (PlGF): 265 nM
B5: DVD549 (bispecific antibody, human IgG1, kappa)
heavy: QVQLKQSGPGLVQPSQSLSITCTVSGFSLTTYGIHWVRQSPGKGLEWLGVMWSGGDTDYDAAFISRLSISKDNSKSQVFFKMNSLQANDTGIYYCARYRFYGMDYWGQGTSVTVSSASTKGPSVFPLAPEVQLVESGGGLVQPGGSLRLSCAASGYTFTNYGMNWVRQAPGKGLEWVGWINTYTGEPTYAADFKRRFTFSLDTSKSTAYLQMNSLRAEDTAVYYCAKYPHYYGSSHWYFDVWGQGTLVTVSS[omitted - human IgG1 constant region]
light: AIQMTQSSSSFSVSLGDRVTITCKASEDIYNRFAWYQQKPGNAPRLLISGAASLEAGVPSRFSGSGSGQDYTLSITSLQTEDVATYYCQQYWSTPWTFGGGTKLEIKRTVAAPSVFIFPPDIQMTQSPSSLSASVGDRVTITCSASQDISNYLNWYQQKPGKAPKVLIYFTSSLHSGVPSRFSGSGSGTDFTLTISSLQPEDFATYYCQQYSTVPWTFGQGTKVEIKRTVAAPSVFIFPPSDEQLKSGTASVVCLLNNFYPREAKVQWKVDNALQSGNSQESVTEQDSKDSTYSLSSTLTLSKADYEKHKVYACEVTHQGLSSPVTKSFNRGEC
notes: HC linker long, LC linker long; also called DVD-Ig DVD549

- EC50 (VEGF): 64.4 nM
- EC50 (PlGF): 0.08 nM
B6: DVD541 (bispecific antibody, human IgG1, kappa)
heavy: QVQLKQSGPGLVQPSQSLSITCTVSGFSLTTYGIHWVRQSPGKGLEWLGVMWSGGDTDYDAAFISRLSISKDNSKSQVFFKMNSLQANDTGIYYCARYRFYGMDYWGQGTSVTVSSASTKGPEVQLVESGGGLVQPGGSLRLSCAASGYTFTNYGMNWVRQAPGKGLEWVGWINTYTGEPTYAADFKRRFTFSLDTSKSTAYLQMNSLRAEDTAVYYCAKYPHYYGSSHWYFDVWGQGTLVTVSS[omitted - human IgG1 constant region]
light: AIQMTQSSSSFSVSLGDRVTITCKASEDIYNRFAWYQQKPGNAPRLLISGAASLEAGVPSRFSGSGSGQDYTLSITSLQTEDVATYYCQQYWSTPWTFGGGTKLEIKRTVAAPDIQMTQSPSSLSASVGDRVTITCSASQDISNYLNWYQQKPGKAPKVLIYFTSSLHSGVPSRFSGSGSGTDFTLTISSLQPEDFATYYCQQYSTVPWTFGQGTKVEIKRTVAAPSVFIFPPSDEQLKSGTASVVCLLNNFYPREAKVQWKVDNALQSGNSQESVTEQDSKDSTYSLSSTLTLSKADYEKHKVYACEVTHQGLSSPVTKSFNRGEC
notes: HC linker short, LC linker short; also called DVD-Ig DVD541

- EC50 (VEGF): 25 nM
- EC50 (PlGF): 0.17 nM
B7: DVD557 (bispecific antibody, human IgG1, kappa)
heavy: B5 heavy
light: B6 light
notes: HC linker long, LC linker short; also called DVD-Ig DVD557

- EC50 (VEGF): 498 nM
- EC50 (PlGF): 3.24 nM
B8: DVD565 (bispecific antibody, human IgG1, kappa)
heavy: B6 heavy
light: B5 light
notes: HC linker short, LC linker long; also called DVD-Ig DVD565

- EC50 (VEGF 1-165 aa): 8.09 nM
- EC50 (HGF-His tag): 0.23 nM
B9: DVD665 (bispecific antibody, human IgG1, kappa)
heavy: B4 heavy
light: B3 light
notes: DVD-Ig; HC linker long, LC linker long; vectors V1/V2

Reference: patent US20100260668A1 (published 2010)
